Inhibition data for 59 compounds are collected here from PubChem BioAssay AID485344 (National Center for Advancing Translational Sciences (NCATS), 2010).

Each structure is given as a SMILES string. “And” between values parts separate entries of the source, which are not always exact repeats. Equal entries are not always repeated. Among all 340,000 compounds or so, about 6,900 (2%) were called active. Cut-off read from the data, not from the text of the source: active = inhibition above about 30%; inactive = below that, where a call was filed. The entries are a selection whose mix differs from that of the whole data set. The source gives no active or inactive call for entries shown without one.

In this test the target is D(2) dopamine receptor (Homo sapiens) (UniProt P14416). In words: HTS Assay for Allosteric Antagonists of the Human D2 Dopamine Receptor: Primary Screen for Antagonists. Note: 0% is about no effect. The following applies: HEK293 TREx D2 cells, calcium flux, dopamine EC80; at 10 µM; stronger effect = higher value. An excerpt: NIH Chemical Genomics Center [NCGC] NIH Molecular Libraries Probe Centers Network [MLPCN] MLPCN Grant: NS064831-01 Assay Submitter (PI): David Sibley Dopamine receptors (DARs) are involved in the etiology and/or therapy of a number of neuropsychiatric and endocrine disorders. For instance, all receptor-based antiparkinsonian drugs work via stimulating the D2 DAR subtype whereas all FDA-approved antipsychotic agents are antagonists of this receptor. […] There are three different types of allosteric modulators that we are seeking, two of which will stimulate or augment receptor signaling, allosteric agonists and potentiators, while the third, allosteric antagonists, will attenuate receptor signaling. The present primary screening assay measures compound antagonism after an EC80 addition of dopamine by tracking calcium flux in a […], inducible Hek293 Trex D2 cell line.
UniProt P14416, sequence (P14416 whole entry, looked up): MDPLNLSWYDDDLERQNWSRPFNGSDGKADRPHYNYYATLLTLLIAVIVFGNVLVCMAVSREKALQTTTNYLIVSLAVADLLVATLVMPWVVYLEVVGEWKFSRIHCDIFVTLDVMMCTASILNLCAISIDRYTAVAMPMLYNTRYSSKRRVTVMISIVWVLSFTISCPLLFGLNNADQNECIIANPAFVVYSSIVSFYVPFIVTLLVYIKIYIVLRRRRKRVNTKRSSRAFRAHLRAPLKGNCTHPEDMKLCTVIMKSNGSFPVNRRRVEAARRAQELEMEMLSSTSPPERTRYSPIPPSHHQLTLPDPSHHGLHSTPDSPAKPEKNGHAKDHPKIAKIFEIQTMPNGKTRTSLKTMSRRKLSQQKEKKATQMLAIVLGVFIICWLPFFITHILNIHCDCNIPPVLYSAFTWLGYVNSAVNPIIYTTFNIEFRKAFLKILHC
Freshly passaged cells are plated in 1536 well black, clear bottom plates at a density of 4000 cells/well in 3 ul of complete media containing 1x tetracycline inducer. After an overnight incubation at 30 C in 5% CO2, cells are loaded with 2 ul of the no wash Calcium Assay Kit (ABD Bioquest) and incubated at room temperature for 30 to 90 minutes. Agonist read: A 10 cycle (1 second/cycle) baseline measurement is taken and then the FDSS online 1536 pintool delivers 23 nl of compound library (as well as dopamine controls) to the plate. The plate is measured for kinetically at 1 cycle/sec for 180 seconds. Following the 180 second read, 1 ul of an EC80 (negative modulation assay) is delivered by an onboard pipette head. Measurements are taken kinetically for an additional 180 seconds.
For `O=S(=O)(c1ccccc1)n1nc(-c2ccc(Cl)cc2)nc1NCc1ccccc1`, the inhibition was found to be 3.43%.
The figure for `COc1ccc(NC(=O)Cn2c(-c3ccc(F)cc3)cc(C(C)=O)c2C)c(OC)c1` is -2.11%; for `COc1ccc(NC(=O)/C=C/c2cc(Br)ccc2OC)cc1` it is active: 49.5%; for `CC(=O)Nc1ccc(S(=O)(=O)NCC2CCC(C(=O)NCCc3ccc(C)cc3)CC2)cc1` (centres undefined) it is 3.94%.
With `COc1ccc(CCNC(=O)Cn2c(=O)nc(-c3ccccc3)c3cc(Cl)ccc32)cc1OC`, the inhibition was 8.62%.
On to `CC(=O)c1cccc(NC(=O)c2ccc3c(c2)N(Cc2ccc(C)cc2)CCS3)c1`, for which the inhibition was -0.242%.
In the case of `N#C/C(=C\c1ccc(F)cc1)c1nc(-c2ccc(-c3ccccc3)cc2)cs1`, the inhibition was 3.76%.
In the case of `COc1cccc(CC(=O)Nc2c(C(=O)N3CCN(c4ccccc4F)CC3)oc3ccccc23)c1`, the inhibition came to 23.7%.
For `COCCCNc1nc2c(c(=O)[nH]c(=O)n2C)n1CC(O)COc1ccc(Cl)cc1` (centres undefined), the inhibition is -12.5%.
On to `Cc1cc(C)c2c(=O)c3c(oc2c1)C(=O)N(CCCOC(C)C)C3c1ccccc1F` (centres undefined), for which the inhibition is -2.44%.
As for `CCCC1=Nc2cc(C(=O)NC3CCCCC3)ccc2Sc2ccc(C)cc21`, the inhibition came out at 17.4%.
As for `COC(=O)c1ccccc1NC(=O)C(Cc1ccccc1)N1Cc2ccccc2C1=O` (centres undefined), the inhibition is 7.5%.
Consider `O=C(Cc1ccc(Cl)cc1)Nc1ccc2oc(-c3ccc(F)cc3)nc2c1`, for which the inhibition is -18.1%.
Regarding `COc1ccc(C)cc1NC(=O)Cn1cc(S(=O)(=O)N2CCC(C)CC2)c2ccccc2c1=O`, the inhibition is -8.29%.
As for `CCOc1ccc(NC(=O)c2c(NCc3cc(OC)c(OC)cc3OC)sc3c2CCCC3)cc1`, the inhibition came out at 9.86%.
As to `CCN(C(=O)C(NS(=O)(=O)c1ccc(Br)s1)c1ccccc1)c1ccc(C)c(C)c1` (centres undefined), the inhibition was 16.1%.
Take `COc1ccc(OC)c(/C=N/NC(=O)CCCC(=O)Nc2cccc(Br)c2)c1`: the inhibition was active: 68.5%.
On to `COC(=O)c1c(NC(=O)c2ccc(C(C)(C)C)cc2)sc2c1CCC(C)C2` (centres undefined), for which the inhibition was found to be 23.2%.
For the compound `COc1cc(C2CC(=O)c3c([nH]c(C(=O)OC4CCCC4)c3C)C2)cc(OC)c1OC` (centres undefined), the inhibition is 1.97%.
For `CCOC(=O)N1CCC(NCCNC(=O)c2ccccc2)CC1`, the inhibition was active: 49.2% and active: 50.7%.
The figure for `Cn1cccc1-c1cc(C(=O)N/N=C/c2ccccc2Cl)[nH]n1` is active: 87.6%; for `CCOC(=O)c1c(NC(=O)COc2ccccc2)sc(C(C)=O)c1C` it is -19.4%.
As for `CCN(C(=O)Cn1nc(Cc2ccncc2)c2ccccc2c1=O)c1ccc(OC)cc1`, the inhibition was -7.58%.
`CCc1ccc(NC(=O)CNC(=O)Cn2c(C)cc3ccccc3c2=O)cc1`: the inhibition worked out at 4.62%.
Take `Clc1ccc(-c2cn3cc(Cc4ccccc4)sc3n2)cc1`: the inhibition came to 0.788%.
For the compound `CCOc1ccc(CCNC(=O)c2ccc(CSCc3ccccc3C)o2)cc1OCC`, the inhibition is 15.1%.
As to `O=C(CSc1nc(=O)n(Cc2ccncc2)c2c1CCC2)Nc1cccc(F)c1`, the inhibition turned out to be 0.108%.
Take `Cc1ccc(NC(=O)C2CCN(S(=O)(=O)c3ccc4c(c3)NC(=O)C(C)S4)CC2)cc1Cl` (centres undefined): the inhibition is active: 72.5%.
For `Cc1cc(C)cc(-n2c(SCC(=O)Nc3ccc4c(c3)OCO4)nc3c([nH]c4ccccc43)c2=O)c1`, the inhibition was -3.63%.
Next, `Cc1cccc(N(C)S(=O)(=O)c2ccc3c(c2)NC(=O)CC(=O)N3)c1`: 7.25%.
Turning to `COc1ccc(CNC(=O)C(=O)NCC(c2cccnc2)N2CCN(c3ccccc3)CC2)cc1` (centres undefined), the inhibition came out at 1.83%.
Turning to `CCCN1CCCc2cc(CN(CCCN3CCOCC3)C(=O)Nc3ccc(Cl)c(Cl)c3)ccc21`, the inhibition was 8.84%.
Regarding `COc1cccc(Cn2c(=O)n(Cc3ccccc3)c(=O)c3c2c2cc(OC)ccc2n3C)c1`, the inhibition is -10%.
`Cc1cc2[nH]c(=O)c(=O)[nH]c2cc1S(=O)(=O)N1CCN(c2ccccc2F)CC1`: the inhibition is -9.35%.
`COc1ccccc1CN1C[C@@H]2C[C@@H](c3ccc(C)c(C)c3)N3CCC[C@@]23C1=O`: the inhibition was active: 34.9%.
On to `COc1ccc2sc(N(Cc3cccnc3)C(=O)CCc3ccccc3)nc2c1`, for which the inhibition turned out to be 2.88%.
Regarding `CCOC(=O)C1(CCOc2ccccc2)CCN(Cc2ccc(C)o2)CC1`, the inhibition was active: 42.2%.
As for `CC1=C(c2ccc(Cl)cc2)S(=O)(=O)N=C1N1CCN(c2cc(C)ccc2C)CC1`, the inhibition came out at 3.09%.
Take `CCOc1ccc(NS(=O)(=O)c2ccc(OCC(=O)N3CCCC3)cc2)cc1`: the inhibition was active: 50.6%.
As for `CN1CCN(c2oc(-c3ccccc3)nc2S(=O)(=O)c2ccc(Br)cc2)CC1`, the inhibition is active: 30.7%.
On to `Cc1ccc(S(=O)(=O)N(C)c2ccc(C(=O)NCc3ccccn3)cc2)cc1`, for which the inhibition was active: 56.7%.
For `Cc1ccc(Nc2ncnc3c2nc2n3CCCC2)cc1F`, the inhibition was 7.44%.
Next, `Clc1ccc(CSc2nncn3c2cc2occc23)cc1`: 2.11%.
`COc1ccccc1CNC(=O)C1CCN(S(=O)(=O)Cc2ccccc2)CC1`: the inhibition was 11.3%.
In the case of `Cc1nc2nc[nH]n2c(=O)c1NS(=O)(=O)c1ccc(Br)cc1`, the inhibition came to 10.1%.
On to `CCOC(=O)c1c(S(=O)(=O)N2CCC(C(=O)NCc3ccccc3Cl)CC2)c(C)n(C)c1C`, for which the inhibition is -8.2%.
In the case of `O=S(=O)(c1ccccc1F)N1CCN(CCOc2ccccc2)CC1`, the inhibition was active: 39%.
Take `COc1cccc(CNC(=O)c2ccc3c(c2)sc2nc(-c4cccc(OC)c4)cn23)c1`: the inhibition is 11.1%.
Take `COc1ccc(N2CC(NC(=O)C(c3ccccc3)c3ccccc3)CC2=O)cc1` (centres undefined): the inhibition stood at 1.59%.
Consider `COCCn1ccc2c(OCC(=O)Nc3cccc(C(F)(F)F)c3)cccc2c1=O`, for which the inhibition was -26.6%.
For `CCOC(=O)c1ccc(NC(=O)Cn2nc(C)c3nn(-c4ccc(Cl)cc4)c(C)c3c2=O)cc1`, the inhibition was -13.8%.
Next, `Cc1cccc(N2CCN(C(=O)c3cnn(-c4ccccc4)c3C3CCN(C(=O)OC(C)(C)C)CC3)CC2)c1C`: 0.91%; `CCOC(=O)c1c(NC(=O)C(C)Sc2cn(CCNC(=O)c3ccc(OCC)cc3)c3ccccc23)sc2c1CCC2` (centres undefined): -18.5%; `Cc1ccccc1OCC(=O)Nc1ccc2nc(SCC(=O)N3CCCC3)sc2c1`: 3.63%.
Next, `O=C1Cc2cc(S(=O)(=O)Nc3ccc(OC(F)(F)F)cc3)cc3c2N1CCC3`: -17.4%.
Consider `COc1ccc(S(=O)(=O)c2nnn(-c3cccc(Cl)c3)c2N)cc1`, for which the inhibition turned out to be 2.27%.
Consider `CS(=O)(=O)N1CCC(C(=O)Nc2ccc(OCc3ccccc3)cc2)CC1`, for which the inhibition was active: 45.5%.
`CCOC(=O)c1cc(-c2ccc(OC)c(S(=O)(=O)N3CCN(c4ccccc4)CC3)c2)on1`: the inhibition was -2.84%.
Next, `COc1ccc2c(c1)c1c(c(=O)n(-c3cccc(C)c3)c(=O)n1CC(=O)NCCC1=CCCCC1)n2C`: 1.31%.
